{
  "source": "PubChem BioAssay AID1347417",
  "about": "(National Center for Advancing Translational Sciences (NCATS), 2020)",
  "note": "Among all 120,000 compounds or so, about 5,300 (4.4%) were called active. Inconclusive results, whose numbers are uncertain, are shown with a selection of clear calls. The call rests on the fitted dose curve; in most records, active means well fitted inhibition curve with a large enough effect; inconclusive means small, poorly fitted or top-dose-only effect; inactive means no such curve, though single readings can be large or run the other way. A potency beside an inconclusive call is a rough fit, not a confirmed value. Potency means the concentration at half of the fitted maximal effect; tags describe the fitted curve by direction and shape.",
  "data": [
    {"test": "qHTS Primary assay for Inhibitors of Plasmodium falciparum Dd2 growth in vitro; further: nearly all actives have a fitted effect of over 65% in size;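 on activity, negative = inhibition: plate controls were DMSO vehicle for no effect and reference drug for full effect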", "details": "P. falciparum Dd2 growth, SYBR Green, 72 h; activity, negative = inhibition: at 28.9 µM (top of the series) unless noted; series mostly up to 28.9 µM", "method_in_brief": "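Infected erythrocytes (Dd2, 0.3% parasitemia, 2.5% hematocrit final) are added to compound in RPMI-1640/Albumax II medium, grown 72 h at 37C in low oxygen, then lysed with saponin/Triton-X containing SYBR Green and read by fluorescence.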", "values": [
      {"smiles": "Cc1c(CN2C[C@@H](CN(C)CCO)[C@@H](CO)C2)[nH]c2c(Cl)cccc12", "Potency": "active: 12.6 µM"},
      {"smiles": "Cc1ccc(NC(=O)CSc2nc3ccccc3nc2Cc2ccccc2F)cc1F", "activity, negative = inhibition": "inactive: 9.97%"},
      {"smiles": "O=C1[C@@H]2C[C@@H](CN2C(=O)C2CC2)Oc2ccccc2N1Cc1ccccn1", "activity, negative = inhibition": "inactive: 8.27% [at 44.1 µM]"},
      {"smiles": "CN(C)c1cc(N2CCCC(NC(=O)c3cccnc3)C2)ncn1", "note": "(stereo not drawn)", "Potency": "inconclusive: 2.82 µM [inhibitor, partial curve, poor fit]"},
      {"smiles": "Cc1ccc(CNC(=O)C2(c3ccc(NC(=O)C4CC4)cc3)CCCCC2)o1", "Potency": "inconclusive: 20 µM [inhibitor, single point]"},
      {"smiles": "Cc1cc(C(=O)Nc2ccc([C@H]3OCC(=O)N(Cc4cccnc4)[C@@H]3CO)cc2)c(C)o1", "activity, negative = inhibition": "inactive: 15.5%"},
      {"smiles": "Cn1nnnc1SCCCNCc1ccc(-c2ccc(Br)cc2)o1", "Potency": "inconclusive: 11.2 µM [inhibitor, single point]"},
      {"smiles": "CN(Cc1ccc(C(F)(F)F)cc1)C1CCc2ccccc21", "note": "(stereo not drawn)", "Potency": "inactive"},
      {"smiles": "CCc1noc(-c2nnn3c2COC(c2ccc(Cl)cc2)C3)n1", "note": "(stereo not drawn)", "Potency": "inconclusive: 20 µM [inhibitor, partial curve, poor fit]"},
      {"smiles": "COc1ccc(-c2nc3cc(C)ccc3cc2CN2CC[C@@H](O)C2)cc1OC", "Potency": "inconclusive: 8.91 µM [inhibitor, single point]"},
      {"smiles": "Cc1cc(C)cc(NC(=O)CN2C(=O)CSc3ccc(S(=O)(=O)N(C)C)cc32)c1", "activity, negative = inhibition": "inactive: -4.85%"},
      {"smiles": "Cc1ccc(OCC(=O)Nc2ccc(Cl)c(-c3nc4ncccc4o3)c2)cc1C", "Potency": "inconclusive: 17.8 µM [inhibitor, single point]"},
      {"smiles": "O=C(NCCc1ccco1)C1c2ccccc2C(=O)N(Cc2ccccc2)C12CCCC2", "note": "(stereo not drawn)", "Potency": "inconclusive: 12.6 µM [inhibitor, single point]"},
      {"smiles": "CSc1ccc(CNC(=O)c2nnn3c2COC(c2ccc(Cl)cc2)C3)cc1", "note": "(stereo not drawn)", "Potency": "inconclusive: 17.8 µM [inhibitor, single point]"},
      {"smiles": "Cc1ccc(C(=O)N2CCCN(C(=O)C3CC3)C(c3ccccc3)CC(=O)NCC2)s1", "note": "(stereo not drawn)", "Potency": "inconclusive: 17.8 µM [inhibitor, single point]"},
      {"smiles": "CC(C)CCN1CCC(Cc2ccc(C(=O)NC3CC3)cc2)CC1", "Potency": "inconclusive: 2 µM [inhibitor, partial curve, poor fit]"},
      {"smiles": "CC1=C[C@@H](CNCc2cccnc2)[C@H](C(C)C)C[C@H]1Cc1nnc(-c2ccccc2F)o1", "Potency": "inconclusive: 2.24 µM [inhibitor, partial curve, poor fit]"},
      {"smiles": "COc1ccc(-c2nsc(NC(=O)COc3ccc(C)c(C)c3)n2)cc1", "activity, negative = inhibition": "inactive: 21%"},
      {"smiles": "O=C(c1cnccn1)N1CCC(N2CC3CC(C2)[C@H]2CCCC(=O)N2C3)CC1", "note": "(stereo partly drawn)", "activity, negative = inhibition": "inactive: 8.37%"},
      {"smiles": "O=C1CCCN1CCCN1C(=O)[C@@H]2C[C@@H](O)CN2C2(CN(C3COC3)C2)C1=O", "activity, negative = inhibition": "inactive: 37.6% [at 44.1 µM]"},
      {"smiles": "CN(Cc1nc(C2CC2)no1)C(=O)c1cc(Cn2ccc3ccccc32)[nH]n1", "activity, negative = inhibition": "inactive: -3.07%"},
      {"smiles": "CC(=O)Nc1ccc(C(=O)N2CCC3(CC2)CC(NC(C)=O)c2ccccc23)cc1", "note": "(stereo not drawn)", "activity, negative = inhibition": "inactive: -0.955%"},
      {"smiles": "C[C@@]12CO[C@@H](Cc3ccccc3)O[C@@H]1CC[C@]1(C)C2CC[C@@H](O)[C@H]1CC(=O)NCc1cc(F)cc(F)c1", "note": "(stereo partly drawn)", "Potency": "inconclusive: 7.08 µM [inhibitor, partial curve]"},
      {"smiles": "CCOc1ccccc1NC(=O)c1cn(C2CCCC2)c(=O)c2c1c1ccccc1n2C", "Potency": "inconclusive: 11.2 µM [inhibitor, single point]"},
      {"smiles": "CCC(C(=O)N1CCN(Cc2ccc(C)c(C)c2)C(=O)C1)n1cccn1", "note": "(stereo not drawn)", "activity, negative = inhibition": "inactive: -8.88%"},
      {"smiles": "Cn1ccnc1CN1CCN(C(=O)C2(Cn3ccnc3)CC2)CC1", "outcome": "inactive"},
      {"smiles": "Fc1cc(Nc2ncc(-c3ccccc3)c3c2OCC3)cc(N2CCOCC2)c1", "Potency": "inconclusive: 15.8 µM [inhibitor, single point]"},
      {"smiles": "CCc1noc(-c2cccn3c(CNC(=O)Cc4c[nH]c5ccccc45)nnc23)n1", "Potency": "inconclusive: 10 µM [inhibitor, partial curve, poor fit]"},
      {"smiles": "COc1cccc(N2C(=O)NC(=NC3CCCCC3)C23CCCN(CC2CC2)C3)c1", "note": "(stereo not drawn)", "Potency": "inconclusive: 12.6 µM [inhibitor, partial curve]"},
      {"smiles": "Cn1cc(CN2CCCC(CCc3cccc(C(F)(F)F)c3)C2)cn1", "note": "(stereo not drawn)", "Potency": "inconclusive: 3.55 µM [inhibitor, full curve, poor fit]"},
      {"smiles": "COCC(=O)N1C[C@@H]2CCCN3CCC[C@@H]([C@H]23)[C@H]1CCCC(=O)N1CCOCC1", "activity, negative = inhibition": "inactive: 11.3%"},
      {"smiles": "Cc1ccc(C2Cn3nnc(C(=O)Nc4ccc(F)c(Cl)c4)c3CO2)cc1", "note": "(stereo not drawn)", "Potency": "inconclusive: 11.2 µM [inhibitor, single point]"},
      {"smiles": "COCCNC(=O)Cn1cc(S(=O)(=O)Cc2ccccc2Cl)c2ccccc21", "activity, negative = inhibition": "inactive: 7.61%"},
      {"smiles": "CCOC(=O)N1CCc2c(sc3c2c(=O)n(CCc2ccccc2)c(=O)n3Cc2cc(C)ccc2C)C1", "Potency": "inconclusive: 1.58 µM [inhibitor, full curve, poor fit]"},
      {"smiles": "N#Cc1ccc(CN2CCC[C@H]2C(=O)N2CCCCCCNC(=O)CC2)cc1", "Potency": "inconclusive: 4.47 µM [inhibitor, partial curve, poor fit]"},
      {"smiles": "CCOc1ccccc1NC(=O)Cn1c(=O)c(-c2noc(CC)n2)c2n(c1=O)CCCC2", "outcome": "inactive"},
      {"smiles": "CNCc1ccccc1OC", "activity, negative = inhibition": "inactive: 1.43% [at 44.1 µM]"},
      {"smiles": "COC1CCC12CCN(C(=O)c1ccc3cc[nH]c3c1)CC2", "note": "(stereo not drawn)", "activity, negative = inhibition": "inactive: -18.5%"},
      {"smiles": "Cc1ccc(-c2nnc(Nc3ccc(Br)cc3)c3ccccc23)cc1S(=O)(=O)N1CCOCC1", "Potency": "inconclusive: 8.91 µM [inhibitor, partial curve]"},
      {"smiles": "O=C(NCCc1noc(-c2ccncc2)n1)C1CCCO1", "note": "(stereo not drawn)", "Potency": "inconclusive: 17.8 µM [inhibitor, partial curve, poor fit]"},
      {"smiles": "COc1ccc(-n2c(=O)c3sc4ccccc4c3n(CC(=O)Nc3cccc(C)c3)c2=O)cc1", "Potency": "inconclusive: 11.2 µM [inhibitor, single point]"},
      {"smiles": "COC[C@H]1CCCN1C(=O)[C@@H](C)C1CC[C@@]2(C)CC[C@H](NC(=O)c3ccc(C#N)cc3)[C@@H](C)[C@@H]2[C@H]1O", "note": "(stereo partly drawn)", "activity, negative = inhibition": "inactive: -28.4%"},
      {"smiles": "Cc1ccc(NC(=O)N2CCC(N3CCN(Cc4ccccc4)C(=O)C3=O)CC2)cc1Cl", "Potency": "inconclusive: 17.8 µM [inhibitor, single point]"}
    ]}
  ]
}
